Some test systems named below: BT-549 breast; DU-145 prostate; HCC-2998 colon; HT29 colon; KM12 colon; NCI/ADR-RES ovarian; OVCAR-4 ovarian; SK-MEL-5 melanoma; SR leukemia; UACC-62 melanoma; COLO 205 colon; EKVX NSCLC; HCT-116 colon; HCT-15 colon; HL-60(TB) leukemia; HOP-92 NSCLC; HS 578T breast; IGROV1 ovarian; MDA-MB-435; MDA-N; NCI-H23 lung; NCI-H460 lung; NCI-H522 lung; OVCAR-3 ovarian; OVCAR-8 ovarian; RPMI-8226 leukemia; SF-268 CNS; SK-OV-3 ovarian; U251 CNS; UO-31 renal; A498 renal; DLD-1 colon; DMS 114 small cell lung; M19-MEL melanoma; NCI-H226 lung; RXF 393 renal; RXF-631 renal; SN12C renal; SW-620 colon; TK-10 renal; A549 NSCLC; ACHN renal; DMS 273 small cell lung; HOP-62 NSCLC; LXFL 529 NSCLC; SNB-19 CNS; 786-0 renal; K-562 leukemia; M14 melanoma; MOLT-4 leukemia; SNB-75 CNS; LOX IMVI melanoma; MCF7 breast; SF-295 CNS; T-47D breast.

What all share (assay): NCI tumour cell line growth inhibition, 48 h

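Growth conditions: 96-well plates. Treatment: test compound, 48 hours, 5 concentrations. Analysis: linear interpolation between bracketing concentrations; unreached endpoints set to highest concentration. GI50: concentration for 50% inhibition of growth.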 Certain results were filed several times, with different values. This list holds those alone. There may be further records. For some assays here: The tests behind the records often covered other concentration ranges, not given here; a value can be the end of its range. For some assays here: Values that stand side by side are repeated measurements in other runs, samples, wells, individuals or studies. Records carry a tag for their origin. Letters hold for one entry only.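 TGI: concentration producing complete growth inhibition.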

Results on seven compounds are retold here after PubChem BioAssay (NCI).

As to `COC1/C=C/C(C)C(C(C)C(OC)C(C)CCC(=O)C(C)C(C/C=C/N(C)C=O)OC)OC(=O)/C=C/C=C(\C)CC(OC)CC2=CC(=O)O[C@H](C2)C(C)C(OC)CC(OC)/C=C/C(C)C(OC)C1` (stereo not given in full), the TGI was 375 nM and 20.1 nM in the experiment on BT-549 breast; 547 nM and > 50 µM in the experiment with DU-145 prostate; 103 nM and 11.4 µM in the experiment with HCC-2998 colon; 326 nM and > 50 µM with HT29 colon; 1.45 µM and > 50 µM in the experiment on KM12 colon; 437 nM and 40.4 nM in the experiment on NCI/ADR-RES ovarian. In addition, the TGI in the experiment on OVCAR-4 ovarian was 51.3 nM and 15 µM; in the experiment with SK-MEL-5 melanoma, 275 nM and 12.1 nM; in the experiment on SR leukemia, 1.23 µM and > 50 µM; in the experiment on UACC-62 melanoma, 198 nM and 18 nM.
For the compound `O=c1cc(-c2ccccc2F)[nH]c2ccc(N3CCCC3)cc12`, the GI50 in the experiment with BT-549 breast was 1.66 nM and 35.4 µM; in the experiment with HCT-116 colon it was < 1 nM and 34 nM; with HOP-92 NSCLC, < 1 nM and > 100 µM; with OVCAR-3 ovarian, < 1 nM and 44.8 nM. Besides, the TGI in the experiment with COLO 205 colon is 2.36 nM and > 100 µM; with DU-145 prostate, 2.88 nM and > 100 µM; in the experiment on EKVX NSCLC, 959 nM and > 100 µM; with HCT-116 colon it was 8.31 µM and > 100 µM; in the experiment with HCT-15 colon, 30.1 nM and > 100 µM; with HL-60(TB) leukemia it was 104 nM and > 100 µM. The TGI in the experiment with HS 578T breast was 93.6 nM and > 100 µM; with HT29 colon it was 4.99 nM and > 100 µM; in the experiment on IGROV1 ovarian it was 139 nM and > 100 µM; in the experiment on KM12 colon, 50.7 nM and > 100 µM; with MDA-MB-435 it was < 1 nM and > 100 µM; in the experiment on MDA-N, < 1 nM and > 100 µM. Further, the TGI was 238 nM and 14.6 µM in the experiment with NCI-H23 lung; 8.55 µM and > 100 µM in the experiment on NCI-H460 lung; 2.07 nM and > 100 µM in the experiment on NCI-H522 lung; 47.5 nM and > 100 µM in the experiment on NCI/ADR-RES ovarian; 2.24 nM and > 100 µM in the experiment on OVCAR-3 ovarian; 464 nM and > 100 µM with OVCAR-8 ovarian. Further, the TGI in the experiment with RPMI-8226 leukemia was 1.3 µM and > 100 µM; in the experiment on SF-268 CNS it was 9.11 µM and > 100 µM; in the experiment on SK-MEL-5 melanoma, 114 nM and > 100 µM; in the experiment on SK-OV-3 ovarian, 1.82 µM and > 100 µM; in the experiment on SR leukemia, < 1 nM and > 100 µM; with U251 CNS, 464 nM and > 100 µM. Moreover, in the experiment on UO-31 renal, the TGI is 464 nM and 29.4 µM.
Consider `COc1cccc2c1C(=O)c1c(O)c3c(c(O)c1C2=O)CC(O)(C(O)CO)CC3OC1CC(N2CCOCC2)C(O)C(C)O1` (stereo not given), for which the TGI is 2.83 nM and 28.8 nM in the experiment on A498 renal; 5.09 nM and 108 nM with COLO 205 colon; 65.1 nM and 10.4 µM with DLD-1 colon; < 1 nM and 38 nM in the experiment on DMS 114 small cell lung; 14.5 nM and 1.13 µM in the experiment on IGROV1 ovarian; 1.1 nM and 36.7 nM in the experiment with M19-MEL melanoma. Further, the TGI with NCI-H226 lung is < 1 nM and 30.8 nM; with NCI-H460 lung, 3.4 µM and 122 nM; in the experiment with OVCAR-3 ovarian, 11.9 nM and 1.71 µM; with OVCAR-4 ovarian, 21.1 nM and 1.45 µM; in the experiment on RXF 393 renal it was < 1 nM and 36.8 nM; in the experiment with RXF-631 renal, 5.82 nM and 320 nM. Also, the TGI in the experiment on SK-OV-3 ovarian was 265 nM and 3.76 µM; in the experiment on SN12C renal, 153 nM and 1.76 µM; in the experiment with SR leukemia it was 17.8 nM and 219 nM; in the experiment on SW-620 colon it was 135 nM and 1.47 µM; with TK-10 renal, 294 nM and 12 µM; with UACC-62 melanoma it was < 1 nM and 19.1 nM.
Regarding `CCCCCCCCC/C=C/C=C/C(=O)NCC(=O)NC1C(O)C(O)C(Nc2ncnc3nc[nH]c23)OC1C(O)CO` (stereo not given), the TGI is 1.04 µM and 46.9 nM in the experiment on A498 renal; 3.16 µM and > 100 µM in the experiment on A549 NSCLC; 3.19 µM and > 100 µM in the experiment on ACHN renal; 2.57 µM and > 100 µM in the experiment on DLD-1 colon; 2.5 nM and 129 nM in the experiment with DMS 273 small cell lung; 3.49 nM and 282 nM with HCC-2998 colon. Also, the TGI in the experiment on HCT-15 colon is 3.48 µM and > 100 µM; in the experiment on HL-60(TB) leukemia, 12.1 nM and > 100 µM; in the experiment on HOP-62 NSCLC, 30.4 nM and 802 nM; with HOP-92 NSCLC it was 2.24 nM and 321 nM; in the experiment on LXFL 529 NSCLC, 241 nM and > 100 µM; in the experiment with NCI-H23 lung, 130 nM and 11.8 µM. In addition, the TGI in the experiment with RPMI-8226 leukemia is 49.7 nM and 1.15 µM; in the experiment on SNB-19 CNS it was 12.5 nM and 156 nM; in the experiment on SR leukemia, 205 nM and > 100 µM.
Turning to `COc1ccc2c(c1)nnn1c3ncccc3c(N=O)c21`, the TGI with 786-0 renal was 5.81 µM and > 100 µM; in the experiment on HL-60(TB) leukemia, 478 nM and > 100 µM; with HOP-92 NSCLC it was 375 nM and 4.02 µM; in the experiment with HS 578T breast, 7.95 µM and 80.5 µM; in the experiment with HT29 colon, 4.72 µM and > 100 µM; in the experiment with IGROV1 ovarian it was 5.77 µM and > 100 µM. Further, the TGI was 808 nM and > 100 µM with K-562 leukemia; 9.58 µM and > 100 µM with M14 melanoma; 52.5 nM and > 100 µM in the experiment with MOLT-4 leukemia; 9.35 µM and > 100 µM with SNB-75 CNS; 28.8 nM and > 100 µM with SR leukemia; 1.34 µM and 17.3 µM with SW-620 colon. Further, in the experiment on K-562 leukemia, the GI50 is 109 nM and 1.1 µM.
Consider `COc1cccc([C@H]2C/C(=N\NC(=O)C(=O)N[C@@H](C)c3ccccc3)c3ccccc3N2)c1`, for which the TGI in the experiment on HOP-62 NSCLC is 9.1 µM and > 100 µM.
`C#CC1(O)C(COP(=O)(O)OC(COCCCCCCCCCCCCCCCCCC)COP(=O)(O)OCC2OC(n3cc(F)c(=O)[nH]c3=O)CC2O)OC(n2ccc(N)nc2=O)C1O` (stereo not given): the GI50 is < 29.9 nM [sample A, mean of 2 tests] and 439 nM [sample B, mean of 3 tests] in the experiment on LOX IMVI melanoma; 382 nM [sample A, mean of 2 tests] and 28.9 nM [sample B, mean of 2 tests] in the experiment on MOLT-4 leukemia; 2.22 µM [sample A, mean of 2 tests] and 184 nM [sample B, mean of 3 tests] with T-47D breast. Also, the TGI is 6.47 µM [sample A] and > 87.6 µM [sample B] with MCF7 breast; 181 nM [sample A] and 66 µM [sample B] in the experiment with RPMI-8226 leukemia; 1.96 µM [sample A, mean of 2 tests] and 19.9 µM [sample B, mean of 3 tests] with SF-295 CNS; > 100 µM [sample A] and 7.83 µM [sample B] in the experiment with SK-MEL-5 melanoma; > 100 µM [sample A] and 6.75 µM [sample B] with SR leukemia; > 100 µM [sample A, mean of 2 tests] and 6.19 µM [sample B, mean of 3 tests] in the experiment on T-47D breast.
